# Laboratory results as given in PubChem BioAssay (Tox21).
# Where “and” joins values, the source holds several entries; their conditions need not be identical. Identical values can stand only once. Inconclusive means that the source gave no clear call. Such entries were picked first, then a sample of the others. Entries that show only a call come without a potency. For some assays here: Potencies beside an inconclusive call are fits to weak or partial responses and may not hold up. Calls of active or inactive are those of the source. Unless noted, calls follow the shape of the dose curve; as a rule, active = well fitted curve in the direction sought with a large enough effect in the repeat runs; inconclusive = weak or mixed curves; inactive = no such curve, though single readings can be large; an effect the other way counts as inactive or inconclusive.
# Experiments:
# [1] = target: Nuclear receptor subfamily 1 group I member 3 (Homo sapiens) (UniProt Q14994); assay: qHTS assay to identify small molecule agonists of the constitutive androstane receptor (CAR) signaling pathway (AID 1224839); also: potency is read from the fitted curve at half-maximal effect; nearly all actives have a fitted effect of over 15% in size
# In short: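 Stable hCAR/CYP2B6-2.2kb HepG2 line in DMEM with 10% FBS; compounds (15 concentrations) and 0.75 uM PK11195 final, 24 h at 37 C/5% CO2, then ONE-Glo luminescence after 30 min.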
# [2] = qHTS RealTime-Glo MT Cell Viability Assay in HEK293 cells - 16 hour (AID 1224872); also: top concentration of the series differs between compounds; nearly all actives have a fitted effect of over 50% in size
# In short: (§1)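 HEK293 cells seeded with NanoLuc/prosubstrate reagent, rested 5 h at 37 C, then dosed and kept at 37 C up to 40 h. Nonlytic real-time luminescence from viable cells read at 0, 8, 16, 24, 32 and 40 h.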
# [3] = qHTS RealTime-Glo MT Cell Viability Assay in HEK293 cells - 24 hour (AID 1224886); also: top concentration of the series differs between compounds; nearly all actives have a fitted effect of over 50% in size
# In short: as §1
# [4] = qHTS assay to identify small molecule antagonists of the sonic hedgehog signaling (Shh) pathway (AID 1259369; calls by dose curve; also: nearly all actives have a fitted effect of over 45% in size; also: potency is read from the fitted curve at half-maximal effect)
# In short: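 Screening used 3T3Gli1-Luc cells at 2,000 per well, compounds delivered in DMSO, and conditioned medium as agonist stimulus; plates incubated 24hr at 37 C and 5% CO2 before a 30min luciferase step.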
# [5] = target: Peroxisome proliferator-activated receptor delta (Homo sapiens) (UniProt Q03181); assay: qHTS assay to identify small molecule antagonists of the peroxisome proliferator-activated receptor delta (PPARd) signaling pathway (AID 743215; active = well fitted inhibition curve with a large enough effect in the signal ratio in the repeat runs, not every such curve was filed as active; inconclusive = weak or mixed curves, or effect the other way; inactive = no such curve, though single readings can be large or run the other way; the % refers to the signal ratio;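 also: cells stimulated with agonist L165041 at 300 nM final during compound exposure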; also: potency is read from the fitted curve at half-maximal effect); settings: HEK293H PPARd-UAS-bla, beta-lactamase FRET ratio, antagonist, 17 h; ratio activity, negative = inhibition: at 62 µM (top of the series) unless noted
# In short: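 Antagonist-mode beta-lactamase reporter screen: HEK293H cells with UAS-bla under PPARd control, stimulated by 300 nM L165041 (final) alongside test compound for 17 h at 37 C, then FRET fluorescence after 2 h substrate incubation.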
# [6] = qHTS assay to identify small molecule agonists of the estrogen receptor beta (ER-beta) signaling pathway - cell viability counter screen (AID 1259380); also: nearly all actives have a fitted effect of over 30% in size; also: potency is read from the fitted curve at half-maximal effect
# In short: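 Viability of ER-beta-UAS-bla HEK293T cells was determined by CellTiter-Glo luminescence following 16 hr treatment with test compounds at 37C.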
# [7] = target: Cytochrome P450 3A4 (Homo sapiens) (UniProt P08684); assay: Cytochrome P450 Family 3 Subfamily A Member 4 (CYP3A4) small molecule antagonists: luciferase reporter qHTS assay (AID 1671201); also: nearly all actives have a fitted effect of over 50% in size; also: potency is read from the fitted curve at half-maximal effect
# In short: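 Enzyme and proluciferin substrate are mixed with test chemicals for 10 min, then NADPH regeneration system drives turnover for 1 h at room temperature. A detection reagent halts the reaction; luminescence after 20 min gives relative activity.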
# [8] = qHTS assay for identifying genotoxic compounds that show differential cytotoxicity against isogenic chicken DT40 cell lines with known DNA damage response pathways - Rad54/Ku70 mutant cell line (AID 743015); settings: DT40 Rad54/Ku70 mutant viability, CellTiter-Glo, 40 h; activity change, negative = cytotoxicity: at 66.8 µM (top of the series); also: nearly all actives have a fitted effect of over 60% in size; also: potency is read from the fitted curve at half-maximal effect
# [9] = target: Thyrotropin receptor (Homo sapiens) (UniProt P16473); assay: qHTS assay to identify small molecule agonists of the thyroid stimulating hormone receptor (TSHR) signaling pathway (AID 1224843; calls by dose curve; also: nearly all actives have a fitted effect of over 45% in size); settings: TSHR-HEK293 cells, cAMP HTRF, agonist mode, 30 min; activation: at 92.4 µM (top of the series) unless noted
# In short: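 TSHR-HEK293 cells in agonist mode, 30 min room-temperature step, then cAMP measured by competitive HTRF (cAMP-d2 with anti-cAMP cryptate) after 1 h at room temperature. Tested at 15 concentrations in triplicate.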
# [10] = qHTS RealTime-Glo MT Cell Viability Assay in HEK293 cells - 32 hour (AID 1224868); also: top concentration of the series differs between compounds; nearly all actives have a fitted effect of over 50% in size
# In short: as §1
# [11] = qHTS assay to identify small molecule antagonists of the vitamin D receptor (VDR) signaling pathway - cell viability counter screen (AID 743225); settings: VDR-bla HEK293T viability, CellTiter-Glo luminescence, 16 h; viability change, negative = cytotoxic: at 61 µM (top of the series) unless noted; also: nearly all actives have a fitted effect of over 50% in size; also: potency is read from the fitted curve at half-maximal effect
# In short: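 Cytotoxicity toward the VDR-bla HEK 293T line was scored by ATP-based CellTiter-Glo luminescence, read in the wells already used for the beta-lactamase readout after 16 h compound treatment under 3 nM 1-alpha,25-dihydroxyvitamin D3 stimulation.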
# [12] = qHTS assay to identify small molecule agonists of the progesterone receptor (PR) signaling pathway - cell viability counter screen (AID 1346799; calls by dose curve; also: nearly all actives have a fitted effect of over 45% in size; also: potency is read from the fitted curve at half-maximal effect)
# In short: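 Viability was scored by ATP luminescence (CellTiter-Glo, 30 min, room temperature) in the same wells used for the reporter readout, after 16 hr compound exposure of PR-UAS-bla HEK293T cells.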
# [13] = target: Nuclear receptor subfamily 1 group I member 2 (Homo sapiens) (UniProt O75469); assay: Human pregnane X receptor (PXR) small molecule agonists, qHTS assay (AID 1346982); also: nearly all actives have a fitted effect of over 35% in size; also: potency is read from the fitted curve at half-maximal effect
# In short: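 Luminescence (ONE-Glo, 30 min RT) after 24 hr compound exposure of PXR-Luc HepG2 cells; cells rested 5 hr post-plating in 5% charcoal-stripped FBS medium.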
# [14] = qHTS assay to identify small molecule agonists of H2AX - cell viability counter screen (AID 1224847; calls by dose curve; also: top concentration of the series differs between compounds; nearly all actives have a fitted effect of over 30% in size)
# In short: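 Viability of CHO-K1 (wild type) cells after 3 hr compound exposure was measured by CellTiter-Glo luminescence.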
# [15] = target: Estrogen receptor (Homo sapiens) (UniProt P03372); assay: qHTS assay to identify small molecule antagonists of the estrogen receptor alpha (ER-alpha) signaling pathway (AID 743069; active = well fitted curve in the direction sought with a large enough effect in the signal ratio in the repeat runs, not every such curve was filed as active; inconclusive = weak or mixed curves, or effect the other way; inactive = no such curve, though single readings can be large or run the other way; the % refers to the signal ratio); settings: HEK293 ER-alpha-UAS-bla, beta-lactamase ratio, antagonist mode; activity, negative = inhibition: at 69.4 µM (top of the series) unless noted
# In short: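 HEK293 ER-alpha-UAS-bla GripTite cells, held overnight in 2% charcoal-stripped FBS, 5,000 cells/well, preincubated 4 h, then compound plus 17beta-estradiol for 18 h at 37C. Beta-lactamase read by LiveBLAzer B/G FRET substrate, 2 h at room temperature.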
# [16] = target: Estrogen receptor beta (Homo sapiens) (UniProt Q92731); assay: qHTS assay to identify small molecule agonists of the estrogen receptor beta (ER-beta) signaling pathway (AID 1259377; active = well fitted activation curve with a large enough effect in the signal ratio in the repeat runs, not every such curve was filed as active; inconclusive = weak or mixed curves, or effect the other way; the % refers to the signal ratio); settings: ER-beta-UAS-bla HEK293T, beta-lactamase FRET ratio, 16 h; activation: at 92.4 µM (top of the series) unless noted
# In short: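 Measured by fluorescence intensity from a B/G FRET beta-lactamase substrate (2 h, room temperature) in ER-beta-UAS-bla HEK293T cells treated with DMSO-dissolved compounds for 16 hr at 37C and 5% CO2.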
# [17] = qHTS assay to identify small molecule agonists of the farnesoid-X-receptor (FXR) signaling pathway - cell viability counter screen (AID 743218); settings: FXR-bla HEK293T viability, CellTiter-Glo luminescence, 16 h; viability change, negative = cytotoxic: at 62.6 µM (top of the series); also: nearly all actives have a fitted effect of over 45% in size; also: potency is read from the fitted curve at half-maximal effect
# In short: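 In GeneBLAzer FXR-UAS-bla HEK 293T cells, compounds act for 16 h at 37 C. Cell viability is then scored in the reporter wells by CellTiter-Glo, 30 min at RT, luminescence.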
# [18] = qHTS assay for small molecule agonists of the p53 signaling pathway (AID 651631; calls by dose curve; also: nearly all actives have a fitted effect of over 15% in size); settings: HCT-116 p53RE-bla reporter, beta-lactamase FRET ratio, 16 h
# In short: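 Fluorescence intensity from cleaved LiveBLAzer B/G substrate (2 h, room temperature) served as the signal. Beforehand, HCT-116 reporter cells bearing p53 response elements were treated 16 h at 37 °C with DMSO-dissolved compounds.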
# [19] = qHTS assay to identify small molecule antagonists of the progesterone receptor (PR) signaling pathway - cell viability counter screen (AID 1346798); also: nearly all actives have a fitted effect of over 50% in size; also: potency is read from the fitted curve at half-maximal effect
# In short: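 Viability was determined by ATP-based luminescence (CellTiter-Glo) in PR-UAS-bla HEK293T cells cultured in 2% charcoal-stripped serum and incubated 16 hr with compounds under R5020 stimulation.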
# [20] = activation: at 73.3 µM (top of the series) unless noted
# Tags tell the direction and shape of the fitted curve or compound fluorescence and quenching.
# Chain of UniProt Q03181 (Q03181 whole entry, looked up): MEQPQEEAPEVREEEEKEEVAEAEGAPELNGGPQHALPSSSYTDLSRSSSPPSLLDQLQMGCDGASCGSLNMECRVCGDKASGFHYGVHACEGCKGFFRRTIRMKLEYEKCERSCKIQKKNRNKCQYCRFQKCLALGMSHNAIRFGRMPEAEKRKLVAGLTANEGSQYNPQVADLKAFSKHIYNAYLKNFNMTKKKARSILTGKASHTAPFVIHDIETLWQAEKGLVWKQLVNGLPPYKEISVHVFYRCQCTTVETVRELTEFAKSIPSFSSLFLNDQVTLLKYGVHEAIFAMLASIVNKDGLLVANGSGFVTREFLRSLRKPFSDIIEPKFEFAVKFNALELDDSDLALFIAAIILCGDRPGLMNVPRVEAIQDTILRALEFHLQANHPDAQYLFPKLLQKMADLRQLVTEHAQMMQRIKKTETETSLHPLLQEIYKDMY
# Chain of UniProt Q92731 (Q92731 whole entry, looked up): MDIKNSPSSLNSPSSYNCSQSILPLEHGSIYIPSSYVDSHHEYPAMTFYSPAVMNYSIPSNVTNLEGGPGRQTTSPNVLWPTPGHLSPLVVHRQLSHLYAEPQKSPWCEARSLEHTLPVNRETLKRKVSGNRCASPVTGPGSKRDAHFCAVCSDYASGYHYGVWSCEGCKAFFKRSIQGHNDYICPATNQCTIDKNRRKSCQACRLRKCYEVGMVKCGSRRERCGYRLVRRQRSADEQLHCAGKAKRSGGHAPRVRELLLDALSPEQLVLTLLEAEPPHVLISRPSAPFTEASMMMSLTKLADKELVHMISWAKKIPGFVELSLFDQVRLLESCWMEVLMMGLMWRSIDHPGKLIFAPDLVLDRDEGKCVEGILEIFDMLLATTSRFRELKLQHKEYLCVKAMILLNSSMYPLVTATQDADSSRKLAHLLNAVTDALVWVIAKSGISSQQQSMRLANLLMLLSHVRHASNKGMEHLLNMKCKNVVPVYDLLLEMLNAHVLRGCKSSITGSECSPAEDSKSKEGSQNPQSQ
# Chain of UniProt O75469 (O75469 whole entry, looked up): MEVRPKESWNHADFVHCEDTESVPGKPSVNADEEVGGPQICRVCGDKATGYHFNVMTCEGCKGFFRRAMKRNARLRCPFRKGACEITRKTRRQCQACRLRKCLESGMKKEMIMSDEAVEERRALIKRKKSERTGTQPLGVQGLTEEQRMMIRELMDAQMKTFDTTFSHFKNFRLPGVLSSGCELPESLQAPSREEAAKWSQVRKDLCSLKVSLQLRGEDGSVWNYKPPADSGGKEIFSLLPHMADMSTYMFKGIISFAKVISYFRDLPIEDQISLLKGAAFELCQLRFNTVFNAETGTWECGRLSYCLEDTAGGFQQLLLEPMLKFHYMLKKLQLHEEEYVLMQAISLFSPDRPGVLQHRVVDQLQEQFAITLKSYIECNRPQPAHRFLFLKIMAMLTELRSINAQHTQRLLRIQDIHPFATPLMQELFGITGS
# Chain of UniProt P16473 (P16473 whole entry, looked up): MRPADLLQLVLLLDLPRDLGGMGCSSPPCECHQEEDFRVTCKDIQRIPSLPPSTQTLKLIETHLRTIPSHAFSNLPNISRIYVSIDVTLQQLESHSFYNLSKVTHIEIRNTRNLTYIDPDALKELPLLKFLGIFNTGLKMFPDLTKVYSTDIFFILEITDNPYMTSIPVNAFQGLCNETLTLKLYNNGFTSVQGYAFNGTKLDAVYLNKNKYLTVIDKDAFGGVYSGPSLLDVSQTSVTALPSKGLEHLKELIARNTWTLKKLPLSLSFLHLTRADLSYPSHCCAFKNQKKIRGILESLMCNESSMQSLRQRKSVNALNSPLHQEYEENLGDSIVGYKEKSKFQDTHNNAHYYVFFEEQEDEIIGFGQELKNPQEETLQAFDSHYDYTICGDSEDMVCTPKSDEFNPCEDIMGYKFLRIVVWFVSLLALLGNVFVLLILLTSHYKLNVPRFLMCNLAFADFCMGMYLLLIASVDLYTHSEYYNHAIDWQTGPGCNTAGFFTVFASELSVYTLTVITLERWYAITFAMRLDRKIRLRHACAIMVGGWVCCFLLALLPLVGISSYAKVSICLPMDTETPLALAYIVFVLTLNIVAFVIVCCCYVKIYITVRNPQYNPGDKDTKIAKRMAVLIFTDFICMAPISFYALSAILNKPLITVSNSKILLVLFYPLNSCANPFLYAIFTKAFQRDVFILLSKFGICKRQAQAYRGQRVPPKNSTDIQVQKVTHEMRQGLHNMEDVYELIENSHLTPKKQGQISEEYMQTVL
# Chain of UniProt P08684 (P08684 whole entry, looked up): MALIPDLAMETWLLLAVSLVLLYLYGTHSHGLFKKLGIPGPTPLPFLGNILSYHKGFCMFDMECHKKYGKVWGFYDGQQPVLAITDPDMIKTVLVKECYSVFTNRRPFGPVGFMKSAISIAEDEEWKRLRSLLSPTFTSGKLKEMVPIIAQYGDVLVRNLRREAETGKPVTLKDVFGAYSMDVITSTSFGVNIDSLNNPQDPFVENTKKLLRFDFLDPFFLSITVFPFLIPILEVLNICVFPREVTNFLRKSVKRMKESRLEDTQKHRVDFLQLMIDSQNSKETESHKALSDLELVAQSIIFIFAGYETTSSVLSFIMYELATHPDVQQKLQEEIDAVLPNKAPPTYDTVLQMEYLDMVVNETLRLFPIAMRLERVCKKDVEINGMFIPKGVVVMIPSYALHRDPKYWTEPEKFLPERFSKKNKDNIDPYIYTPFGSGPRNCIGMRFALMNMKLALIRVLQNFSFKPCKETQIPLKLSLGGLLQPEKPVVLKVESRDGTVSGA
# Chain of UniProt Q14994 (Q14994 whole entry, looked up): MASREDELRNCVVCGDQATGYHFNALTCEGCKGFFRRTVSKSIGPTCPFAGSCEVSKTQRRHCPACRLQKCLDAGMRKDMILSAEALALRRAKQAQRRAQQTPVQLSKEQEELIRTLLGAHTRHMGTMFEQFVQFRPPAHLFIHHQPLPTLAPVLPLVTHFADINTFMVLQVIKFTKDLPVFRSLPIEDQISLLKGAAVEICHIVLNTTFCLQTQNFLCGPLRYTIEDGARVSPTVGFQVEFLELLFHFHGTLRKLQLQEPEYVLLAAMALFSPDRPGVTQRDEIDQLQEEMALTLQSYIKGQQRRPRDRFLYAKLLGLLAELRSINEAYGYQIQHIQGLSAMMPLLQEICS
# Chain of UniProt P03372 (P03372 whole entry, looked up): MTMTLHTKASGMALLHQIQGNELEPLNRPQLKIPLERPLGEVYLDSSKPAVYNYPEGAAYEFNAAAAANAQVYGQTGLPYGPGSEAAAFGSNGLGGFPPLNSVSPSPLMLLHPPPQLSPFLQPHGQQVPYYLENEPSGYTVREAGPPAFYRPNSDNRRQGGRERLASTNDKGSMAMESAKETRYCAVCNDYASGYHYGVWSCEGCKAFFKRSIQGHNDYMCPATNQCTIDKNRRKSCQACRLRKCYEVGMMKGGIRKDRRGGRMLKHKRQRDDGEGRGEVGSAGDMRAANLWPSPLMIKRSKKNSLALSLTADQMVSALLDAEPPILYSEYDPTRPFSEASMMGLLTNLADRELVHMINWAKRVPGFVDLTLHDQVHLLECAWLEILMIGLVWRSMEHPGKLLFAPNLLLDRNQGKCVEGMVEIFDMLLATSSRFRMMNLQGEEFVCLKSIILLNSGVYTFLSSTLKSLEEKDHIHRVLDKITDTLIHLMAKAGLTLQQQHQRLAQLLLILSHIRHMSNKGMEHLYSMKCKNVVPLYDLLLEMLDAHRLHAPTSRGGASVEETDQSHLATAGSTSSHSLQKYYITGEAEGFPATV
structure (smiles),measurement,setting,value
CNC(=O)Oc1ccccc1C(C)C,Potency,[1],"inconclusive: 54.5 µM [activator, partial curve]"
same,Potency,[2],inactive
same,Potency,[3],inactive
C[C@@H](Oc1ccc(Cl)cc1Cl)C(=O)O,Potency,[4],"inconclusive: 0.611 µM [inhibitor, single point]"
CCNc1nc(NC(C)C)nc(OC)n1,Potency,[5],inactive
same,Potency,[4],inactive
same,Potency,[6],inactive
same,Potency,[7],"inconclusive: 35.6 µM [inhibitor, partial curve, poor fit]"
Cc1cccc(C)c1NC1=NCCCS1,Potency,[8],"inconclusive: 33.5 µM [cytotoxic, partial curve, poor fit]"
same,Potency,[9],inactive
same,Potency,[10],inactive
CCCCn1cc[n+](C)c1C,Potency,[8],"inactive and inconclusive: 69.4 µM [cytotoxic, single point] and inconclusive: 69.2 µM [cytotoxic]"
same,Potency,[11],"inconclusive: 54.7 µM [cytotoxic, single point]"
same,Potency,[4],"inconclusive: 2.42 µM [inhibitor, single point]"
same,Potency,[12],"inconclusive: 77.6 µM [cytotoxic, single point]"
same,Potency,[13],inactive
same,Potency,[7],inactive
CC1(C)COP(Oc2ccccc2)OC1,Potency,[14],inactive
CN1C[C@@H](NS(=O)(=O)N(C)C)C[C@@H]2c3cccc4c3c(cn4C)C[C@H]21,Potency,[8],"inconclusive: 33.5 µM [cytotoxic, partial curve, poor fit]"
same,Potency,[1],"inconclusive: 26.6 µM [activator, partial curve]"
same,Potency,[6],"inconclusive: 26.6 µM [cytotoxic, partial curve]"
same,Potency,[13],active: 23.7 µM
COc1cc(C[C@@H](C)N)c(OC)cc1C,Potency,[15],inactive
same,Potency,[16],inactive
same,Potency,[12],"inconclusive: 73.4 µM [cytotoxic, partial curve, poor fit]"
same,Potency,[7],inactive
N#CC(Br)(Br)C(N)=O,Potency,[17],"inconclusive: 6.92 µM [rising, full curve, poor fit]"
same,activation,[9],inconclusive: 30.4%
same,Potency,[3],inactive
NC1=NC(=O)C(c2ccccc2)O1 (centres undefined),Potency,[5],inactive
same,Potency,[11],inactive
c1ccc2c(c1)CCCC2,activation,[18]; [20],inconclusive: 10.5%
same,activation,[18]; at 95.1 µM (top of the series),inactive: -2%
same,Potency,[8],"inconclusive: 62.4 µM [cytotoxic, single point]"
same,Potency,[11],inactive
same,Potency,[14],inactive
same,Potency,[4],inactive
same,activation,[16],inconclusive: 6.76%
Cc1cnc[nH]1,Potency,[3],inactive
same,Potency,[7],"inconclusive: 30.5 µM [inhibitor, partial curve]"
OCc1ccco1,Potency,[18]; [20],inactive
same,Potency,[8],"inconclusive: 68.6 µM [cytotoxic, single point]"
same,Potency,[5],"inconclusive: 0.0309 µM [rising, full curve, poor fit]"
same,Potency,[6],"inconclusive: 28.1 µM [rising, partial curve, poor fit]"
same,Potency,[19],"inconclusive: 2.81 µM [cytotoxic, full curve, poor fit]"
same,Potency,[7],"inactive and inconclusive: 39.9 µM [inhibitor, partial curve]"
N#Cc1ccccn1,Potency,[17],inactive
same,activation,[9],inconclusive: -15.3%
CCSC(C)CC1CC(=O)C(/C(CC)=N/OC/C=C/Cl)=C(O)C1 (centres undefined),Potency,[4],inactive
C=CC(Cl)CCl (centres undefined),Potency,[17],inactive
same,Potency,[19],inactive
same,Potency,[12],inactive
same,Potency,[13],"inconclusive: 31.4 µM [activator, partial curve]"
CCC(C)c1cc(C(C)(C)C)cc(-n2nc3ccccc3n2)c1O (centres undefined),Potency,[10],inactive
same,Potency,[16],inactive
same,Potency,[6],inactive
same,Potency,[12],"inconclusive: 18.8 µM [cytotoxic, partial curve, poor fit]"
CCCSC(=O)Cl,Potency,[8],"inconclusive: 69.1 µM [cytotoxic, single point]"
same,Potency,[3],inactive
